# Reference: publication PMC7819943, “Rice protein-binding microarrays: a tool to detect cis-acting elements near promoter regions in rice”
# This is one part of the list.
# Target: T1, OsWOX13 (Oryza sativa, UniProt Q5QMM3 1-267)
# T1 sequence: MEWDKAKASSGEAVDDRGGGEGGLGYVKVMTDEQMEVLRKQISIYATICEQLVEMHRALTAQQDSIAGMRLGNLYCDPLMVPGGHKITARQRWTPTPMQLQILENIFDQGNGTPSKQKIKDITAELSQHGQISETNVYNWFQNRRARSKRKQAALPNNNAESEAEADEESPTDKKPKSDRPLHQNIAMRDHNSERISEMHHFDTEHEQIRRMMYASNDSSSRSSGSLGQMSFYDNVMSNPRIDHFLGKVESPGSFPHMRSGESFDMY
# Experiment: protein-binding microarray (RPBM); PBS, 2% BSA, 51.3 ng/ul salmon testes DNA, 50 uM zinc acetate, 200 nM TF, 25 C, 1 h; high values mean tight binding
# Conditions: protein: recombinant; tags: N-terminal polyhistidine and DsRed monomer fusion (pET32a); label: CyDye5-dUTP incorporated in the synthesized complementary strand; 3' TTTTT single-stranded linker to array surface; dsDNA, one strand shown
# In short: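 An Axon 4000B scanner gave the binding signal as per-feature fluorescence intensity in arbitrary units. This followed washing of a custom Agilent array that had been incubated for 1 h at 25 °C with 200 nM protein in PBS, 2% BSA, salmon testes DNA and 50 µM zinc acetate. The proteins were transcription factors fused at the N-terminus to polyhistidine and DsRed, expressed in E. coli BL21-CodonPlus and purified on Ni–NTA.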
row,Sequence,binding signal
1,CATGATTGGTTGAAAGTTGCCTGAATTCCAAGTCAAACTCCGGAGTCACCTAGTGCAG,23000 fluorescence intensity (a.u.)
2,TTATCTCATGGTATTCTAATTGACAGTGGGAAGCAACATGCGGAGTCACCTAGTGCAG,8500 fluorescence intensity (a.u.)
3,GGAAAGTGATTATTAGAGTTTGTGTCGAATATGTGTACAACGGAGTCACCTAGTGCAG,7650 fluorescence intensity (a.u.)
4,AAGAATTAATTAATGTTTAACTAGATGGCCTTATTATCTCCGGAGTCACCTAGTGCAG,34300 fluorescence intensity (a.u.)
5,TTACTTAATTAGAGTGCATGTTTACCTATTCAAAAGTGTTCGGAGTCACCTAGTGCAG,27400 fluorescence intensity (a.u.)
6,TTTGAGCATAATTACGCCATAATTTAACAATGTGGTGCTTCGGAGTCACCTAGTGCAG,30200 fluorescence intensity (a.u.)
7,TGTAACTCGTTAATTTATAGTCCTCATATTTTATCAATTCCGGAGTCACCTAGTGCAG,7980 fluorescence intensity (a.u.)
8,GAAAATTAGATGGGACACATCCTATTAGTACAAACTTAAGCGGAGTCACCTAGTGCAG,11400 fluorescence intensity (a.u.)
9,GTGCATGATGATTGTAAGATAAATGTAGCGTCAAGTAACACGGAGTCACCTAGTGCAG,15700 fluorescence intensity (a.u.)
10,ATGTTTAACGTTAACGTCGTAATTAAATGACACAAACCGACGGAGTCACCTAGTGCAG,13400 fluorescence intensity (a.u.)
11,CTTAACAACAACAAACTGGTTGGGACAGTACCATCTCTAGCGGAGTCACCTAGTGCAG,5690 fluorescence intensity (a.u.)
12,AATCAATAAATTATTAATAACATTAGTACCTGGTTGAACGCGGAGTCACCTAGTGCAG,14800 fluorescence intensity (a.u.)
13,CCCTAATGAGTTACTATTATAGATGCGCTTGTCTTCAACGCGGAGTCACCTAGTGCAG,5210 fluorescence intensity (a.u.)
14,ATAATTTGCAGACTTAATATTATCCAAGAAGATAGGAGTACGGAGTCACCTAGTGCAG,5140 fluorescence intensity (a.u.)
15,ACCTCGATTACTAAATTATAGTCTCTTGCACACCGATGAACGGAGTCACCTAGTGCAG,10500 fluorescence intensity (a.u.)
16,CAAAATAATATATTAATTCTAGACTAATGACAACATGCACCGGAGTCACCTAGTGCAG,4940 fluorescence intensity (a.u.)
17,TTATTTTGTGATTACTATCTCTCCGTTCATGTTTCTATCTCGGAGTCACCTAGTGCAG,5480 fluorescence intensity (a.u.)
18,ATATAATGGACTACAGCACATTGGTTCCCATTTGCGTTAGCGGAGTCACCTAGTGCAG,3260 fluorescence intensity (a.u.)
19,CCATTTACTAGCTGATTGGGCTCGAGATAGATTTGGTAAACGGAGTCACCTAGTGCAG,14200 fluorescence intensity (a.u.)
20,GACGATGATTGATCCAATGAAAACCCTTCAAACAAAGGTTCGGAGTCACCTAGTGCAG,48900 fluorescence intensity (a.u.)
21,TATTCAATAACTAAATTAATGCCTGATTTACGTTGTTCGTCGGAGTCACCTAGTGCAG,17400 fluorescence intensity (a.u.)

row,Sequence,binding signal
1,AGATATATGAAATTATAAATTACATGTTTGCGAGTATATTCGGAGTCACCTAGTGCAG,5370 fluorescence intensity (a.u.)
2,GGTAAAAGAATAATTAGCTAGTAGCGACATGGCATCTACTCGGAGTCACCTAGTGCAG,5620 fluorescence intensity (a.u.)
3,TATCATTAGGAGTGCTAATTTGTCTATTTAGTACCATTTTCGGAGTCACCTAGTGCAG,3230 fluorescence intensity (a.u.)
4,AAATAAATTGTTGCCAAAACTTATTTAAATCACCTGACGCCGGAGTCACCTAGTGCAG,17600 fluorescence intensity (a.u.)
5,TGCTACACATCTGAAACTGATTAGTGATTTCTTGTCTCCTCGGAGTCACCTAGTGCAG,6470 fluorescence intensity (a.u.)
6,CTGGGTGTGGGTGTGGGTCTGGGTCTGGGTGGAAGAGGAACGGAGTCACCTAGTGCAG,5770 fluorescence intensity (a.u.)
7,CTAATTTAAAATCTATCATTTTCTAAATTTGAAACGGTTTCGGAGTCACCTAGTGCAG,17700 fluorescence intensity (a.u.)
8,AGCTCGTGGATTGGCAGATTAATCTTTGAATTTGCAAAGGCGGAGTCACCTAGTGCAG,7350 fluorescence intensity (a.u.)
9,AAGATGGGGAAATTTAACAGATGAAATTTACCTCGAACGACGGAGTCACCTAGTGCAG,7800 fluorescence intensity (a.u.)
10,ACTAATTAATTACTTGTAAGTTTTGTAACTCAACTTAAATCGGAGTCACCTAGTGCAG,49200 fluorescence intensity (a.u.)
11,GACGAATTTATAGCTAATTTGCACTCAAGTAAGACAAACCCGGAGTCACCTAGTGCAG,9530 fluorescence intensity (a.u.)
12,CGTCTAATCCGATTATAGATTGTTATATTCTCGGAGGGAGCGGAGTCACCTAGTGCAG,9290 fluorescence intensity (a.u.)
13,CACATCAACCTGCACCAATCATGCCATCGAGATCACAACACGGAGTCACCTAGTGCAG,3970 fluorescence intensity (a.u.)
14,GGCTGGTTATCTGATGAAATTATTGTGAATACCATACACTCGGAGTCACCTAGTGCAG,4860 fluorescence intensity (a.u.)
15,CCCAATTTTACAATTAACGACCATCGCTTCGTCTGGTCGTCGGAGTCACCTAGTGCAG,16100 fluorescence intensity (a.u.)
16,CATCAATCAACAGCCCCTTAATCCTTGCAGTTGATGTATACGGAGTCACCTAGTGCAG,30600 fluorescence intensity (a.u.)
17,TCGTTACCGTTAATTATATAATTTACTGAGTAAATTATATCGGAGTCACCTAGTGCAG,18000 fluorescence intensity (a.u.)
18,CAACTTTAAATTTGAGTGAAAATTTAAATTTTGGTCCTAACGGAGTCACCTAGTGCAG,9350 fluorescence intensity (a.u.)
19,CCCTCAATAATTAGCGGCTCAGCCGTGTCACCACTAGGGTCGGAGTCACCTAGTGCAG,17200 fluorescence intensity (a.u.)
20,CCTGATGCGTGATTTACTCATGGTGTAAATCACACGATCTCGGAGTCACCTAGTGCAG,24600 fluorescence intensity (a.u.)
21,AAGTTGATTGGCACCAATTTTCGGAGATACGGAAGACATTCGGAGTCACCTAGTGCAG,49100 fluorescence intensity (a.u.)
